In the supplement of paper PMC5499739:
The full ranking holds about 16,000 sequences; the median of “Z-score” is about -0.37, and the highest 2% start at about 3.1. The list shows a part of the results.

Test system: RBM10 RRM1-ZnF-RRM2 (GST-tagged construct)
Assay: RNAcompete 7-mer binding Z-score; higher = stronger binding preference
Description: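 RNAcompete: 20 pmol GST-tagged RBM10 RNA-binding constructs were incubated with a designed RNA pool of about 241,000 sequences up to 41 nt (1.5 nmol) on glutathione beads for 30 min at 4 °C and washed. Bound RNAs were identified by microarray hybridisation. Each RNA 7-mer is scored by a one-sided Z-score of its enrichment, computed over probes that contain the 7-mer within longer pool sequences.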

Sequence | RNAcompete 7-mer binding Z-score
UGCUACG | -0.5
UCUUCAC | -0.865
GCCGCGU | -0.57
GCACCUA | -0.577
ACUAAGU | -0.22
UGAUAAC | -0.42
GUACACC | -0.256
GUCAACU | -0.256
UCGAAUA | -0.286
UGGGUCU | 0.607
GCAAGCU | -0.544
CAAGGGG | 3.03
CUCCUCA | -0.77
AGCAGCG | 0.807
UUCUUAG | -0.65
ACCGCUU | -1.03
GCGCUGA | -0.424
UUCCGGG | 0.341
UCAUCCU | -0.81
ACAGCGU | -0.0343
UGCUGAU | -0.471
GACCACU | -0.73
CUAUCAG | -0.602
CGCGAGG | 0.833
CCACCCU | -0.817

Sequence | RNAcompete 7-mer binding Z-score
ACUUCCC | -0.927
AGAAGAU | 0.334
GAAUUCC | -0.668
ACCCGUA | -0.719
UGCUGAG | 0.148
GUUAGAC | 0.264
GAAAGGC | 2.13
GCACACC | -0.453
UGUGAAA | 0.0349
CAUUUGU | -0.803
CGCUGCA | -0.439
CUACUGU | -0.806
UACUGAA | -0.362
AGUAUAC | -0.118
CGUCAAA | -0.151
ACAGACA | 0.075
CUGGAUG | 0.366
UUCUGGA | -0.278
GCUCUGC | -0.872
UAUAGCC | -0.442
AUGGAAC | 2.02
GAAAACC | -0.435
CUUUACA | -0.719
GAUAAGU | 0.0969
UGCCAGC | -0.511

Sequence | RNAcompete 7-mer binding Z-score
CGCUGAC | -0.795
UGGACUA | 0.396
ACACAUC | -0.555
GCGGUCG | 0.909
ACCCGUC | -0.912
UAGCGCC | -0.723
UCUAUGC | -0.763
ACGUCAC | -0.592
CUGUCGA | -0.617
GGUUUGA | 0.548
ACGUUUG | -0.511
GCGAUCG | 0.308
UUCUGGC | -0.723
AAAGGUG | 3.5
GCACCAC | -0.373
AUGCACA | -0.0379
GUAGCGC | 0.235
AGGGUGG | 3.88
GGAUGCA | 1.76
UGCGCGA | -0.384
UAAACAC | -0.369
UAUCCGU | -0.744
CAGUACU | -0.398
AAGCGGU | 1.03
CCGGAAA | 0.00216

Sequence | RNAcompete 7-mer binding Z-score
UCUGAGA | -0.53
GCCCGAA | -0.646
UCGCCGG | -0.362
GACAAAU | -0.103
GCGCCGC | -0.307
UUCCAAA | -0.562
CCAAUCU | -0.821
UAAAGGG | 2.65
UAUAGGG | 2.76
GUUUGGU | 0.432
UUUUUUA | -0.581
AGUUAUA | -0.227
GAUCGCA | -0.26
UUACACC | -0.664
UCUAAUC | -0.679
ACGGUAU | 0.847
CGUAGAU | -0.195
CCUUCGU | -0.803
GCGUGUC | -0.235
GACUUCA | -0.672
GGAAUGU | 1.58
UUCUUAC | -0.792
UAGAAAU | -0.337
GACAACU | -0.537
AUAAGGA | 2.16

Sequence | RNAcompete 7-mer binding Z-score
UUGGGCA | 1.44
AGUGCGU | 0.425
UCCCGAA | -0.879
UGGCCCA | -0.417
AGCGUGU | 0.13
UUUCGAC | -0.701
CUGCCCC | -0.5
UCGCGUA | -0.468
GCUACGG | 0.607
GUAGGCC | 0.461
CCGUCUC | -0.77
ACGCCUA | -0.981
GAUGCCU | -0.81
GAUCGAC | -0.471
UCUGGGU | 0.705
CUAAAAC | -0.606
AAGCGCG | 0.286
UGAGUAC | 0.177
GUGUAGA | 1.55
CAGAGUG | 1.09
GAGGACG | 1.69
UUGAUUA | -0.442
UGGAGUA | 1.66
UGUGGGA | 2.96
GUAGACC | -0.0925

Sequence | RNAcompete 7-mer binding Z-score
UUGCAUU | -0.701
CAUGUUA | -0.49
UCGGGGG | 2.42
UGCUCGG | -0.424
CUGGGUC | 0.275
ACUCACU | -0.795
CGAGUAU | -0.391
CUGUGCC | -0.843
AUGUGCG | 0.417
GUAGUUU | -0.191
GAUCACU | -0.701
UCCAGAC | -0.555
GACCAAA | -0.00148
CCAGCCA | -0.748
GGGGAGU | 2.86
CUAUUGA | -0.595
UGGUCAG | 0.694
ACUCGUC | -0.752
GUUUUGG | 0.716
AGCAAGU | -0.0343
CUCGUCA | -0.617
UUAAGUU | -0.42
GCUUACA | -0.632
ACAAUAC | -0.446
CCCUGCC | -0.846

Sequence | RNAcompete 7-mer binding Z-score
UAAACUG | -0.209
GACUGUC | -0.85
AACUGGG | 1.77
GAACAUG | 0.461
GAACAUU | -0.384
AGGGGAG | 2.52
AGAUACA | -0.278
AAGGCCG | 0.534
ACGUGGA | 1.82
CAUCCGG | -0.158
GUUAUAG | 0.159
AUUGGAC | 0.927
CAGCGUU | -0.435
GUUCCCA | -0.398
AGGGUUG | 3.34
GACGAUG | 0.68
GUACAAC | 0.33
AAAAAUU | -0.435
GGCAGGU | 1.66
ACCCGGU | -0.5
UGACCGG | 0.137
GCCUAAU | -0.697
CGUGAAG | 0.261
AGGGGAC | 1.97
UAUGAUU | -0.26

Sequence | RNAcompete 7-mer binding Z-score
CCGUUAU | -0.683
AGCAUUC | -0.672
CAGCCCC | -0.475
UCCCUCG | -0.719
GGACUCC | 0.126
GUUCACG | -0.355
AGAUGGG | 2.71
CUCAGUU | -0.828
UGGGGUA | 3.36
GGCUCCU | -0.679
GUAACUA | -0.118
AACGAUC | -0.46
CGCGAUU | -0.701
AUCGCUA | -0.763
AUCCCCU | -0.712
UCUGUGU | -0.599
CAAGACC | -0.723
CAUUAUA | -0.446
CACGGAU | 0.366
CCGACAC | -0.555
UCUCAGA | -0.559
UACAUCA | -0.347
AAGUUCC | -0.701
CAUUGGC | -0.388
UGCUGCC | -0.719

Sequence | RNAcompete 7-mer binding Z-score
AACAUUC | -0.632
GACCUCA | -0.854
UCUAUCU | -0.592
AUAUUCC | -0.748
AUAAUUC | -0.628
UUCGAAC | -0.53
CAGAGAU | 0.359
CAUGCUU | -0.861
AUUCGGC | -0.275
GCGCUUU | -0.785
GGACACG | 0.989
GUCAGAA | 0.243
CAUGAGA | 0.024
CGGGGUG | 3.36
GCAGGUA | 1.67
AGAUUGA | 0.381
UGGUCAU | 0.17
UGUCUAG | -0.577
AGGCUCU | -0.69
GAAAUGA | 0.705
GUGGCUC | 0.133
UCAAAGG | 0.691
AUUGACC | -0.573
CCAUAAU | -0.81
UCAGCAA | -0.337

Sequence | RNAcompete 7-mer binding Z-score
AGUGGCC | 0.173
ACUACAU | -0.628
UUGACGC | -0.522
GCUGGGA | 1.69
AUCGCCA | -0.759
GUUAAGG | 1.99
GUGGUGA | 1.84
CACACGC | -0.307
GAUGGGG | 4
AUUGCAU | -0.395
UUCACAU | -0.679
AUUCGUC | -0.643
GGGACCG | 1.19
ACUGGGU | 1.96
AAAGGCC | 0.279
UCAACGA | -0.322
CAGGCAA | 1
AUAAUAU | -0.49
GCUCUAG | -0.701
UCAGCGC | -0.515
GGUUACU | 0.141
UCUGUGC | -0.825
ACCGCUA | -0.872
GGCGUUG | 0.534
AGUGAUC | -0.00877

Sequence | RNAcompete 7-mer binding Z-score
CAGUGGC | 0.865
GGUUAAU | 1.14
AUGAAUC | -0.184
GAUGUAA | 0.217
UUAGCAA | -0.129
UCUUACC | -0.934
AUUCGAC | -0.708
ACAUGCA | -0.103
UAGACAU | -0.198
CUGUACA | -0.537
GACUCAG | -0.413
GGCACGU | 0.683
UAGAUGC | -0.267
UUCUAUG | -0.755
GCAGGCG | 1.54
GACUACU | -0.77
GGCGAAG | 2.29
AGCUCAC | -0.846
GUUACUU | -0.515
AAUCGGU | 0.377
CAUCAGA | -0.351
UCGGGUU | 0.916
UUGUAAC | -0.668
GGGGAGG | 3.33
GUCUAUC | -0.486

Sequence | RNAcompete 7-mer binding Z-score
UAGGAUC | 0.618
AAGUAUG | 0.607
AGAUUUC | -0.559
GGGGACC | 1.51
UUACGCU | -0.486
AUCUUUC | -0.846
AGUAACC | -0.337
UCAGUCA | -0.493
GAGCCAA | -0.249
CACACGA | -0.559
AACAUGG | 1.32
UAUGAUC | -0.69
CUGGAUC | -0.333
GGUGGAU | 2.46
CGGGCCA | 0.159
ACCAUCU | -0.919
GACAAAC | -0.347
AAACAAA | -0.0488
CAUGACA | -0.551
CACAUCC | -0.664
UCCGCUA | -0.683
UUAUCGA | -0.34
AAAGAUG | 0.599
AAUCUUC | -0.748
GAUCUCG | -0.679

Sequence | RNAcompete 7-mer binding Z-score
GGGUGGA | 4.54
GAAUUGG | 2.4
UCUAAUU | -0.817
AUCAAUC | -0.362
CGCCAUC | -0.741
CUAUGUU | -0.606
CAAUACU | -0.559
AGUACCU | -0.519
CGGAAUU | 0.501
CGUCUGU | -0.57
AGGACCU | -0.65
CGUUCAC | -0.61
AGGCACU | -0.271
CUCUGCC | -0.887
ACCCCUG | -0.785
UCUCCAU | -0.755
CAAGAAA | -0.125
UGGCGGG | 3.19
GCAAGCA | -0.00148
CCCAAAU | -0.828
UGGCUAA | 0.294
GUUAGGG | 3.65
UACCGAU | -0.435
UCCCUAC | -0.879
UACAAAC | -0.402

Sequence | RNAcompete 7-mer binding Z-score
UCGACAC | -0.49
UCAAAAA | -0.584
GGGCCCC | 0.301
UGGAUCA | 0.705
CCUGGAU | -0.577
CUUAGCU | -0.832
GGCUUUC | -0.643
UACGUGG | 1.24
GUUACUC | -0.581
UCUUAUG | -0.843
AUGUCCG | -0.69
CAGAGUU | -0.158
GCCCAGG | -0.0889
UGCGUAU | -0.413
AAUAUAG | 0.0495
UAUUACA | -0.482
GAAAUCG | 0.195
UGAUCCC | -0.541
AGAUGUG | 0.829
GCGACUA | -0.231
CUGAGUA | -0.388
UAGAUAC | -0.369
GUAGCGA | 0.818
GAAGUUC | -0.457
CGCCCUG | -0.653

Sequence | RNAcompete 7-mer binding Z-score
AAGUCCA | -0.34
CUAAUGG | 0.13
AACACUC | -0.817
UAGGGCA | 2.23
UCAGGCG | 0.57
GCUCGGA | 0.00216
GGGUCGG | 2.52
CUCAGCG | -0.424
UGCGAAG | 0.279
UUUCCCA | -0.748
UCGGUAG | 0.556
UCUCUGC | -0.81
UGGCCUG | -0.322
UCCAUGC | -0.519
GUGACUC | -0.0925
GGUGUUA | 0.989
CUUAGUA | -0.635
